± gives the standard deviation of the averaged measurements. Some of the results follow.
Test system: PfAP2-G AP2 domain (GST-tagged)
Test: gcPBM binding intensity (ln(normalized median fluorescence intensity)); higher = stronger DNA binding
In short: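 In this array assay, P. falciparum DNA-binding domains with a GST tag, expressed in E. coli, were applied for 1 h to primer-extended double-stranded 36-bp intergenic genomic probes and negative controls on an Agilent 4 × 180k array. Bound protein was visualised with Alexa488 anti-GST antibody at 488 nm. Binding intensity is the highest Masliner-normalised natural-log median intensity across replicate spots of either probe orientation.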

In order of falling “gcPBM binding intensity (ln)” value:
1. AAGTATAAATAAAGGCGTACACATGTAAATTATATT [XGTACX_site126]  11.7 ± 1.1
2. TTTGGATAAAAAATATGTACACACATATAGATATCT [XGTACX_site5660]  11.6 ± 0.71
3. CATATGTATATGACTACACACAAGGGTGTACCTATA [CACACA_site6670]  11.5 ± 1
4. TTTATTTTAAATGGGTGTACTCATTCCTTATGGAAG [XGTACX_site1397]  11.4 ± 0.98
5. TATACTATTTAAATGTGTACTAAAAGAATATATTAT [XGTACX_site5238]  11.3 ± 0.88
6. TTAAAAATAAATTCATGTACATAATATATATATATA [XGTACX_site7908]  11.2 ± 0.59
7. TTGACAGGAACGTTGGTGCACGTACTGTTTTTCTTT [GTGCAC_site9389]  11 ± 0.53
8. TGTTCATTTTTAAAATGTACATATATGTTGTTCCAT [XGTACX_site8444]  11 ± 0.75
9. TAATAGATGTTATGAAGTACTAAATATTAAATATAA [XGTACX_site5717]  10.9 ± 0.55
10. GAATATGTGATATTTTGTACATAAAAATAATATATA [XGTACX_site6398]  10.9 ± 0.61
11. TAATAAATCAATAAATGTACATATATGTATAATTTC [XGTACX_site980]  10.8 ± 0.31
12. GTATAATATTTTAATGCACACACACTAATAAAAAAA [CACACA_site8939]  10.3 ± 0.21
13. TATATATAGAAACACACACACACACCCAAGCGTAGC [CACACA_site63]  10.3 ± 0.22
14. TTGCATTTATTATACACACACAAAAAAATATTTATA [CACACA_site6252]  10.2 ± 0.16
15. TATATACAACGTTAAGCACACACAAAAAAAATTTAA [CACACA_site9013]  10.2 ± 0.26
16. AAAATAATTCATGTTGGTAATAAGACTCGAGGTGAA [CACACA_negctrl_site1054]  10.08 ± 0.014
17. ACGTATTTTTAAATATATGAATTATGTAACTTGTGA [CACACA_negctrl_site1446]  10.015 ± 0.007
18. AAAACATAAATACATACACACATAATATAGATTAAT [CACACA_site6205]  9.955 ± 0.092
19. TTTAAAAATATATTCACACAGAAATAGTAAAAGTTA [CACACA_site4587]  9.93 ± 0.13
20. ATCTATATCTATAATACACACATAAATGGATATATA [CACACA_site6284]  9.91 ± 0.11
21. CTATATGTTAAATTCTCACACATTATTACAATTTAA [CACACA_site5979]  9.89 ± 0.028
22. CAAGCCCTTCTGCTTACACACAGTAATTATTGTGCA [CACACA_site7399]  9.84 ± 0.11
23. AATTATAAAAAAAAAAAAAAAAAAAAAAACTAAATG [CACACA_negctrl_site1379]  9.73 ± 0.14
24. ATAATGTATTTATATATATATATATATTTTAATAAA [CACACA_negctrl_site460]  9.53 ± 0.11

From the supplement of paper PMC11417369
